# Paper PMC4336329 (PLoS ONE, 2015)
# Screen size: about 310,000 compounds; about 14,000 (4.5%) showed an effect of 50% or more. The effect is printed as a negative number. The list shows a part of the results.
# Biological target: human ether-à-go-go-related gene (hERG) potassium channel (human, UniProt Q12809)
# Test: primary screen, population patch clamp on CHO cells stably expressing hERG
# 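Also: peak tail current of the secondary pulse compared with the same well before compound.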
# human ether-à-go-go-related gene (hERG) potassium channel, sequence (Q12809 whole entry, looked up): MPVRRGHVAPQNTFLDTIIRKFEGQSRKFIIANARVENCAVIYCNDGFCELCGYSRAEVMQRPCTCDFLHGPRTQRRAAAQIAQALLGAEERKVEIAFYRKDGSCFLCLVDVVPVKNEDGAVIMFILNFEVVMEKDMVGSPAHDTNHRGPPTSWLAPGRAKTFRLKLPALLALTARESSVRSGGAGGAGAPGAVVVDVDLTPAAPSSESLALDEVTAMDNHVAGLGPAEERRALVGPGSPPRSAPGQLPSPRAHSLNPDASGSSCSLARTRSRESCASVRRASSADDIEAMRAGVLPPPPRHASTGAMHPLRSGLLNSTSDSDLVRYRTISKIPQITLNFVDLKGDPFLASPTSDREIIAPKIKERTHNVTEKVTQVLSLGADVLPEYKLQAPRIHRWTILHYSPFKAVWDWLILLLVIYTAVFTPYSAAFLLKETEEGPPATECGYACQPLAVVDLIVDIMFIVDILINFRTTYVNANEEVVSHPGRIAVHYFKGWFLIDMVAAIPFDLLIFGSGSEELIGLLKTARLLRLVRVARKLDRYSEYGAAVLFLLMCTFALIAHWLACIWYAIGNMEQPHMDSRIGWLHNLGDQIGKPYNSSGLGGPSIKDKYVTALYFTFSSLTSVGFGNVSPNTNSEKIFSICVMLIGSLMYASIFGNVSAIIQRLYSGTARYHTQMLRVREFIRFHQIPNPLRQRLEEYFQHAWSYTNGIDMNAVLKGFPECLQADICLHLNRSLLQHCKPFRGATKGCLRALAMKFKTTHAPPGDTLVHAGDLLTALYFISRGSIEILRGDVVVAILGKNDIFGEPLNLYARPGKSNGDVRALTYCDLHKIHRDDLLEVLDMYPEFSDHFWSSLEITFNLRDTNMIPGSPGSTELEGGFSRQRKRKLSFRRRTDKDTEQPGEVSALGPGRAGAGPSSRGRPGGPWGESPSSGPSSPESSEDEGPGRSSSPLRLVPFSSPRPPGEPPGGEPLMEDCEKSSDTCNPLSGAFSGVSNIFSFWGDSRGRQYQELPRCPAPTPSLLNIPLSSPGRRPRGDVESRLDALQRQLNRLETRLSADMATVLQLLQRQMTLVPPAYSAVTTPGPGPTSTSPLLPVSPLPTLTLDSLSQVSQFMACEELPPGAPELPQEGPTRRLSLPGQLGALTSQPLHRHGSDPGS
row,SMILES,"hERG current change (%, negative = inhibition) at 10uM [%]"
1,COc1ccc(C2C(C(C)=O)=C(O)C(=O)N2C)c(OC)c1 (stereo not drawn),2.38
2,CCOC(=O)C1CCCN(C(=O)c2cn(CC)c3ccc(S(=O)(=O)N(C)C)cc3c2=O)C1 (stereo not drawn),11.9
3,NC(=O)NC(=O)COC(=O)c1ccc(OC(F)(F)F)cc1,-1.84
4,Cl.O=C(c1cccc(S(=O)(=O)N2CCCCC2)c1)N1CCN(Cc2ccccc2)CC1,-56.6
5,CCn1c(COc2ccccc2)nc2ccccc21,3.03
6,N#CC(C#N)=C1C=CC=CN1/C(=C\c1ccco1)C(=O)c1ccccc1,-57.8
7,O=C1/C(=C/c2ccccc2F)SC(=S)N1CCC(=O)N1CCCCC1CCO (stereo not drawn),-0.41
8,NC(=O)C1CCN(CC(=O)N2N=CCC2c2ccccc2)CC1 (stereo not drawn),2.46
9,CN1CCN(C(=O)c2cn(-c3ccccc3)nc2-c2cccnc2)CC1,-18.4
10,O=C(CSc1ncccn1)NCC1CCCO1 (stereo not drawn),-1.44
11,COc1ccccc1N(C)S(=O)(=O)c1ccc(C(=O)OC(C)C(=O)NCc2ccc3c(c2)OCO3)cc1 (stereo not drawn),-41.6
12,COC(=O)CC1C(=O)NCCN1C(=O)c1c(F)cccc1F (stereo not drawn),14.5
13,COc1cc(NC(=O)CCCN2C(=O)NC(C)(C)C2=O)cc(OC)c1,12.2
14,O=C(CCn1nc(-c2ccccc2)ccc1=O)N1CCOCC1,-32
15,CN1CCN(C(=O)N2CCNC2=O)CC1.Cl,3.85
16,Cc1ccc(-c2nnc(Nc3ccc(C(N)=O)cc3)c3ccccc23)cc1S(=O)(=O)NCC1CCCO1 (stereo not drawn),4.4
17,O=C(O)c1ccccc1NC(=S)NC(NC(=O)c1ccccc1[N+](=O)[O-])C(Cl)(Cl)Cl (stereo not drawn),7.96
18,COc1cc(OC)cc(C(=O)Nc2nnc(SCC(=O)NCC3CCCO3)s2)c1 (stereo not drawn),14.3
19,O=C1Nc2c(c(=O)[nH]c(=O)n2Cc2ccccc2)C1(NS(=O)(=O)c1ccccc1)C(F)(F)F (stereo not drawn),15.3
20,Cc1cccc(-n2c(C)cc(/C=N/NC(=O)c3ccc(CN4CCOCC4)cc3)c2C)c1,-29.3
21,Cc1ccc2nc(NC(=O)CSc3nncc(=O)n3N)sc2c1,-9.17
22,COc1cc2cc(C(=O)N3CCN(c4ccccc4OC)CC3)[nH]c2cc1OC,24.5

row,SMILES,"hERG current change (%, negative = inhibition) at 10uM [%]"
1,CCCC(NC(=O)c1ccco1)c1nc2ccccc2[nH]1 (stereo not drawn),-6.95
2,CC1CN(C(=O)CCC(=O)NC(C)c2ccccc2)c2cc(Cl)ccc2O1 (stereo not drawn),-35
3,CCOc1ccc(-n2c(SCC(=O)N3CCc4ccccc43)nnc2-c2c[nH]c3ccccc23)cc1,22.8
4,Cn1c(N)c(N2CCCCC2)c(=O)n(CC(=O)Nc2ccc(Cl)c(Cl)c2)c1=O,-7.67
5,COc1ccc(N2CCN(C(=O)C3CCCO3)CC2)cc1 (stereo not drawn),7.55
6,CCCN1CNc2c(c(=O)[nH]c(=S)n2-c2ccccc2Cl)C1,11.4
7,N#Cc1c(C#N)c(-c2ccccc2)n(-c2ccccc2)c1N,-0.71
8,CCOC(=O)c1sc(NC(=O)CSc2nc(C)cc(-c3ccccc3)n2)c(C#N)c1C,18.3
9,COc1cc(C(C)=O)ccc1OCC(O)Cn1nc(C)c(C(C)=O)c1C (stereo not drawn),-1.6
10,COc1cc(C(=O)OCC(=O)NC2CCS(=O)(=O)C2)ccc1OCc1c(C)noc1C (stereo not drawn),6.91
11,Cc1cccc(C2(c3cccc(C)c3)CC2C(=O)NCC2CCCO2)c1 (stereo not drawn),-6.94
12,Cc1cc2cc(CNC(=S)Nc3ccc(OC(F)(F)F)cc3)ccc2[nH]1,16.3
13,CCOc1ccccc1C(=O)Nc1cccc2ccccc12,17.8
14,Cc1ccc(NC(=O)c2c(C)nc3sc(C(=O)NC4CCCC4)c(N)c3c2-c2ccco2)c(C)c1,-0.174
15,COc1ccc(S(=O)(=O)NCCNC(=O)N2CCOCC2)cc1,-13.7
16,COc1ccc(N2C(=O)CSC2c2ccncc2)cc1 (stereo not drawn),13.1
17,O=C(NC1=NC2CCCCC2N1)c1ccccc1 (stereo not drawn),19.2
18,Cc1cccc(NC(=O)C2CCCN(c3cnccn3)C2)c1 (stereo not drawn),-5.03
19,O=P(O)(O)COc1ccccc1P(=O)(c1ccccc1)c1ccccc1,5.84
20,CN(C)S(=O)(=O)c1cccc(-c2nnc3n2CCCCC3)c1,0.501
21,COc1cccc(Cn2c(-c3nonc3N)nc3ccccc32)c1,-11.7
22,O=C1CN(C(=O)COc2ccc(Br)cc2Br)c2ccccc2N1,6.68

row,SMILES,"hERG current change (%, negative = inhibition) at 10uM [%]"
1,Cc1ccc(CNCc2ccc3c(c2)OCO3)cc1,-0.503
2,CC1(C)NC(=O)N(CC(O)CN(Cc2ccccc2)Cc2ccccc2)C1=O (stereo not drawn),-1.49
3,Cc1nn(CC#N)c(=O)n1-c1ccc(C(C)C)cc1,5.18
4,Cc1ccc(C)c(NC(=S)N2CCN(Cc3ccccc3)CC2)c1,11.2
5,O=C(O)C1=C[C@@H](c2csc3ccccc23)C[C@@H](OCCCCO)O1,3.14
6,NC(=O)C1=C[C@@H](c2csc3ccccc23)C[C@@H](OCc2ccc(CO)cc2)O1,-19.1
7,C=CCSc1nc2sc3c(c2c(=O)[nH]1)CCC3,2.84
8,Cc1ccccc1C(=O)Nc1ccc2c(c1)CCCN2C(=O)c1cccs1,-9.52
9,Cc1ccn2c(=O)nc(SCC(=O)N3CCCCCC3)nc2c1,11.8
10,O=C(/C=C/c1ccccc1[N+](=O)[O-])N1CCc2ccccc2C1,-38.7
11,O=C(NC1CCCCCCC1)C1c2ccccc2C(=O)N1Cc1ccco1 (stereo not drawn),-14.4
12,COCCNC(=S)N(CCO)Cc1cc2cc3c(cc2[nH]c1=O)OCO3,19.8
13,O=C(NNC(=S)NCc1ccccc1)c1ccc(Br)o1,18.5
14,CCn1c(-c2cccnc2Cl)nc2cc(C)c(C)cc21,14.5
15,CCOC(=O)Cc1csc(NC(=O)c2ccc(Br)cc2)n1,13.4
16,CC(=O)NCCc1nc2ccccc2n1CCOc1ccccc1,1.52
17,Cn1nc(-c2ccc(N3CCOCC3)c(NS(=O)(=O)c3ccccc3)c2)c2ccccc2c1=O,-15.6
18,CC1CCCCN1C(=O)NC12CC3CC(CC(C3)C1)C2 (stereo not drawn),-7.43
19,O=C(CSc1nnc(CNc2ccc(Cl)cc2)o1)Nc1nc2c(s1)CCCC2,-6.9
20,CCN(CC)CCCN=Cc1c(O)n(-c2cccc(C)c2)c(=O)c2ccccc12,-42.8
21,COc1c(C)cc(C(=O)C2CCCN(Cc3cccc4nccnc34)C2)cc1C (stereo not drawn),-64.5
22,COc1ccc(O)c(C(=O)c2cnn(C(=O)c3cc(C)oc3C)c2)c1,13

row,SMILES,"hERG current change (%, negative = inhibition) at 10uM [%]"
1,Cc1ccc(S(=O)(=O)NNc2ccccc2)c(C)c1,-0.462
2,Cc1ccc(OCC(=O)N(C)CC(=O)Nc2ccc(Cl)c(C(F)(F)F)c2)c([N+](=O)[O-])n1,-54.8
3,Cc1cc(NC(=O)CSc2nc(C(C)(C)C)nc3ccccc23)no1,18.8
4,CCCn1nc(NC(=O)c2ccco2)c2cc3cc(C)ccc3nc21,1.55
5,O=c1cc[nH]c2cccc(Cc3ccccc3)c12,-3.29
6,Cc1noc(C)c1S(=O)(=O)N1CCC(Cc2ccccc2)CC1,0.232
7,COC(=O)c1ccc(NC(=O)c2cccc(Cl)c2)o1,-11.8
8,COc1cc(OC)c(NC(=O)CNC(=O)Cn2ccc3ccccc3c2=O)cc1Cl,23.4
9,COC(=O)C1=C(c2c(C)noc2C)C[C@@H]2CC[C@H]1N2C(=O)N1CCC(O)CC1,16.6
10,Cc1cc(C)c(C)c(OCCN2CC(C)OC(C)C2)c1.O=C(O)C(=O)O (stereo not drawn),6.21
11,CCOC(=O)C1CCN(c2c(N3CCCC(C(=O)OCC)C3)c(=O)c2=O)CC1 (stereo not drawn),-22.8
12,COc1ccccc1N1CCN(CC(O)COc2ccc3c(c2)OCO3)CC1.Cl (stereo not drawn),-33.7
13,COc1cc(-c2[nH]ncc2CN2CCCC2c2nonc2C)cc(OC)c1OC (stereo not drawn),-17.6
14,CC(=O)Nc1ccc(NC(=O)CN2C(=O)COc3ccc(S(=O)(=O)N4CCOCC4)cc32)cc1,21.1
15,COCCNCC(=O)Nc1ccc(C)c(S(=O)(=O)N2CCCCC2)c1.O=C(O)C(=O)O,-11.5
16,c1ccc(CCn2c(SCc3ccccc3)nnc2-c2ccncc2)cc1,-41.4
17,Cc1cc(=O)oc2cc(OCC(=O)Nc3ccc(S(=O)(=O)N(C)C)cc3)ccc12,-1.43
18,CC(C)CCn1nnnc1C(c1ccc(F)cc1)N1CCC(C(N)=O)CC1 (stereo not drawn),-21.4
19,CCOc1ccccc1N1CC(C(=O)Nc2cc(S(C)(=O)=O)ccc2Cl)CC1=O (stereo not drawn),0.00348
20,C1=C(c2ccccc2)Nc2ncnn2C1c1ccccc1 (stereo not drawn),-5.26
21,CCN1CCCC(OC(=O)C(c2ccccc2)c2ccccc2)C1.Cl (stereo not drawn),-66.1
